Measurements: the supplement of paper PMC12217912
This is one part of the list. The full chains were built here from the parent and the listed change. Values near 0.05 are background.

B1: TEV protease; numbered along this chain (parent)
chain: MGESLFKGPRDYNPISSSICHLTNESDGHTTSLYGIGFGPFIITNKHLFRRNNGTLVVQSLHGVFKVKDTTTLQQHLVDGRDMIIIRMPKDFPPFPQKLKFREPQREERICLVTTNFQTKSMSSMVSDTSCTFPSGDGIFWKHWIQTKDGQCGSPLVSTRDGFIVGIHSASNFTNTNNYFTSVPKNFMELLTNQEAQQWVSGWRLNADSVLWGGHKVFMVKPEEPFQPVKEATQL

Variants of: B1
Test: raw area under fraction-flipped curve 0-4 h after induction (AUC4h, not background-subtracted), DNA-recorder readout of cleavage of the substrate (dimensionless); higher = more cleavage of the substrate by the protease variant
Settings: temperature: 34 °C; time window: 0-4 h after rhamnose induction
Description: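 In vivo DNA recorder in E. coli TOP10(DE3) ΔrhaA at 34 °C. Each TEVp single-site mutant (parent TEVp 0) is paired with a single-site variant of the 7-mer TEVs (canonical ENLYFQ|S). The substrate sits between flexible linkers in a Bxb1-sfGFP-TEVs-SsrA fusion, so cleavage stabilises Bxb1 and speeds flipping of a recombination array, read by NGS. The value is the raw area under the fraction-flipped curve over 0-4 h after rhamnose induction (AUC4h), with ≥20 reads per time point. It is not background-subtracted; inactive controls average about 0.047.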
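Note: Bxb1 expression induced with 0.2% (w/v) L-rhamnose at OD600 near 0.5, cultures sampled hourly, flipped fraction per protease–substrate barcode pair counted by paired-end Illumina sequencing.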

Variant	area with substrate ENLYAQS	area with substrate ENLYCQS	area with substrate ENLYDQS	area with substrate ENLYEQS	area with substrate ENLYGQS	area with substrate ENLYHQS	area with substrate ENLYIQS	area with substrate ENLYKQS	area with substrate ENLYLQS	area with substrate ENLYMQS	area with substrate ENLYNQS	area with substrate ENLYQQS	area with substrate ENLYSQS	area with substrate ENLYWQS	area with substrate ENLYPQS	area with substrate ENLYRQS	area with substrate ENLYTQS	area with substrate ENLYVQS	area with substrate ENLYYQS
MGESLFKGPRDYNPISSSICHLTNESDGHTTSLYGIGFGPFIITNKHLFRRNNGTLMVQSLHGVFKVKDTTTLQQHLVDGRDMIIIRMPKDFPPFPQKLKFREPQREERICLVTTNFQTKSMSSMVSDTSCTFPSGDGIFWKHWIQTKDGQCGSPLVSTRDGFIVGIHSASNFTNTNNYFTSVPKNFMELLTNQEAQQWVSGWRLNADSVLWGGHKVFMVKPEEPFQPVKEATQL [V57M]	0.0687	0.123	0.0979	0.0588	0.0791	0.0735	0.0843	0.0646	0.0875	0.0818	0.0556	0.0686	0.0844	0.0803					
MGESLFKGPRDYNPISSSICHLTNESDGHTTSLYGIGFGPFIITNKRLFRRNNGTLVVQSLHGVFKVKDTTTLQQHLVDGRDMIIIRMPKDFPPFPQKLKFREPQREERICLVTTNFQTKSMSSMVSDTSCTFPSGDGIFWKHWIQTKDGQCGSPLVSTRDGFIVGIHSASNFTNTNNYFTSVPKNFMELLTNQEAQQWVSGWRLNADSVLWGGHKVFMVKPEEPFQPVKEATQL [H47R]	0.0665		0.0578	0.0671		0.0883	0.0616	0.0466		0.0557	0.0732	0.0663	0.112	0.0633	0.0744	0.0594	0.0439	0.0536	0.219
MGESLFKGPRDYNPISSSICHLTNESDGHTTSLYGIGFGPFIITNKALFRRNNGTLVVQSLHGVFKVKDTTTLQQHLVDGRDMIIIRMPKDFPPFPQKLKFREPQREERICLVTTNFQTKSMSSMVSDTSCTFPSGDGIFWKHWIQTKDGQCGSPLVSTRDGFIVGIHSASNFTNTNNYFTSVPKNFMELLTNQEAQQWVSGWRLNADSVLWGGHKVFMVKPEEPFQPVKEATQL [H47A]	0.0568			0.0741		0.0462		0.0282		0.0592	0.0611	0.0644	0.0669	0.0452	0.0852		0.0529		0.0731
MGESLFKGPRDYNPISSSICHLTNESDGHTTSLYGIGFGPFIITDKHLFRRNNGTLVVQSLHGVFKVKDTTTLQQHLVDGRDMIIIRMPKDFPPFPQKLKFREPQREERICLVTTNFQTKSMSSMVSDTSCTFPSGDGIFWKHWIQTKDGQCGSPLVSTRDGFIVGIHSASNFTNTNNYFTSVPKNFMELLTNQEAQQWVSGWRLNADSVLWGGHKVFMVKPEEPFQPVKEATQL [N45D]	0.0635		0.064	0.0562	0.054	0.0543	0.0504	0.0616	0.0594		0.0606	0.0644	0.0567	0.0545	0.0559	0.0605	0.065	0.0611	0.0701
MGESLFKGPRDYNPISSSICHLTNESDGHTTSLYGIGFGPFIILNKHLFRRNNGTLVVQSLHGVFKVKDTTTLQQHLVDGRDMIIIRMPKDFPPFPQKLKFREPQREERICLVTTNFQTKSMSSMVSDTSCTFPSGDGIFWKHWIQTKDGQCGSPLVSTRDGFIVGIHSASNFTNTNNYFTSVPKNFMELLTNQEAQQWVSGWRLNADSVLWGGHKVFMVKPEEPFQPVKEATQL [T44L]	0.0589		0.0509	0.0548	0.0615	0.0603	0.075	0.0216	0.0645		0.0665		0.0601	0.0509	0.0544	0.0634			0.0557
MGESLFKGPRDYNPISSSICHLTNESDGHTTSLYGIGFGPFIITNKHLHRRNNGTLVVQSLHGVFKVKDTTTLQQHLVDGRDMIIIRMPKDFPPFPQKLKFREPQREERICLVTTNFQTKSMSSMVSDTSCTFPSGDGIFWKHWIQTKDGQCGSPLVSTRDGFIVGIHSASNFTNTNNYFTSVPKNFMELLTNQEAQQWVSGWRLNADSVLWGGHKVFMVKPEEPFQPVKEATQL [F49H]	0.037	0.065	0.0531			0.0574	0.0567	0.0533	0.0514	0.0542	0.0623		0.0612	0.057	0.0605	0.0599		0.0669	0.045
MGESLFKGPRDYNPISSSICHLTNESDGHTTSLYGIGFVPFIITNKHLFRRNNGTLVVQSLHGVFKVKDTTTLQQHLVDGRDMIIIRMPKDFPPFPQKLKFREPQREERICLVTTNFQTKSMSSMVSDTSCTFPSGDGIFWKHWIQTKDGQCGSPLVSTRDGFIVGIHSASNFTNTNNYFTSVPKNFMELLTNQEAQQWVSGWRLNADSVLWGGHKVFMVKPEEPFQPVKEATQL [G39V]	0.0378		0.0454	0.0511	0.0414	0.0534	0.0383	0.042	0.047	0.0446	0.0383	0.0367	0.037	0.0528	0.0424	0.0543			0.0354
MGESLFKGPRDYNPISSSICHLTNESDGHTTSLYGIGFKPFIITNKHLFRRNNGTLVVQSLHGVFKVKDTTTLQQHLVDGRDMIIIRMPKDFPPFPQKLKFREPQREERICLVTTNFQTKSMSSMVSDTSCTFPSGDGIFWKHWIQTKDGQCGSPLVSTRDGFIVGIHSASNFTNTNNYFTSVPKNFMELLTNQEAQQWVSGWRLNADSVLWGGHKVFMVKPEEPFQPVKEATQL [G39K]	0.0455	0.0499	0.0404	0.0235	0.044	0.0548	0.0383	0.0506	0.0366	0.058	0.0461	0.0419	0.0255	0.0269	0.0574	0.0497	0.0377	0.0509	
MGESLFKGPRDYNPISSSICHLTNESDGHTTSLYGIGFGAFIITNKHLFRRNNGTLVVQSLHGVFKVKDTTTLQQHLVDGRDMIIIRMPKDFPPFPQKLKFREPQREERICLVTTNFQTKSMSSMVSDTSCTFPSGDGIFWKHWIQTKDGQCGSPLVSTRDGFIVGIHSASNFTNTNNYFTSVPKNFMELLTNQEAQQWVSGWRLNADSVLWGGHKVFMVKPEEPFQPVKEATQL [P40A]	0.032	0.119	0.0597	0.0555	0.0621	0.0736	0.121	0.0482	0.0898	0.0764			0.0802	0.0782	0.0708	0.0587		0.129	0.0786
MGESLFKGPRDYNPISSSICHLTNESDGHTTSLYGIRFGPFIITNKHLFRRNNGTLVVQSLHGVFKVKDTTTLQQHLVDGRDMIIIRMPKDFPPFPQKLKFREPQREERICLVTTNFQTKSMSSMVSDTSCTFPSGDGIFWKHWIQTKDGQCGSPLVSTRDGFIVGIHSASNFTNTNNYFTSVPKNFMELLTNQEAQQWVSGWRLNADSVLWGGHKVFMVKPEEPFQPVKEATQL [G37R]	0.0657	0.0633	0.0708	0.0626	0.0624	0.0565	0.0558	0.0416	0.0683	0.0642	0.0457	0.0614	0.0676	0.0721	0.0811	0.0405		0.0769	0.0503
MGESLFKGPRDYNPISSSICHLTNESDGHTTSLYGIGFGPFIITNKHHFRRNNGTLVVQSLHGVFKVKDTTTLQQHLVDGRDMIIIRMPKDFPPFPQKLKFREPQREERICLVTTNFQTKSMSSMVSDTSCTFPSGDGIFWKHWIQTKDGQCGSPLVSTRDGFIVGIHSASNFTNTNNYFTSVPKNFMELLTNQEAQQWVSGWRLNADSVLWGGHKVFMVKPEEPFQPVKEATQL [L48H]	0.0617		0.0591	0.0452	0.0595	0.0622	0.0697	0.0582		0.0578	0.0464	0.0516	0.0544		0.0543		0.062		
MGESLFKGPRDYNPISSSICHLTNESDGHTTSLYGIGFGPFIITNKHLFRRMNGTLVVQSLHGVFKVKDTTTLQQHLVDGRDMIIIRMPKDFPPFPQKLKFREPQREERICLVTTNFQTKSMSSMVSDTSCTFPSGDGIFWKHWIQTKDGQCGSPLVSTRDGFIVGIHSASNFTNTNNYFTSVPKNFMELLTNQEAQQWVSGWRLNADSVLWGGHKVFMVKPEEPFQPVKEATQL [N52M]	0.0706		0.0512	0.067		0.062	0.0812	0.0106	0.0612		0.058					0.0653			
MGESLFKGPRDYNPISSSICHLTNESDGHTTSLYGIGFGPFIITNKHLFRRTNGTLVVQSLHGVFKVKDTTTLQQHLVDGRDMIIIRMPKDFPPFPQKLKFREPQREERICLVTTNFQTKSMSSMVSDTSCTFPSGDGIFWKHWIQTKDGQCGSPLVSTRDGFIVGIHSASNFTNTNNYFTSVPKNFMELLTNQEAQQWVSGWRLNADSVLWGGHKVFMVKPEEPFQPVKEATQL [N52T]	0.064		0.0544	0.0522	0.0503	0.0476	0.0953	0.0173		0.068	0.0595	0.0564		0.0646	0.0696	0.0712	0.0518	0.0934	
MGESLFKGPRDYNPISSSICHLTNESDGHTTSLYGIGFGPFIITNKHLFRCNNGTLVVQSLHGVFKVKDTTTLQQHLVDGRDMIIIRMPKDFPPFPQKLKFREPQREERICLVTTNFQTKSMSSMVSDTSCTFPSGDGIFWKHWIQTKDGQCGSPLVSTRDGFIVGIHSASNFTNTNNYFTSVPKNFMELLTNQEAQQWVSGWRLNADSVLWGGHKVFMVKPEEPFQPVKEATQL [R51C]	0.0853	0.0897	0.064	0.0591	0.0619	0.0729	0.136	0.0641			0.0685	0.0533	0.0465	0.0822	0.0754	0.0704		0.146	
MGESLFKGPRDYNPISSSICHLTNESDGHTTSLYGIGFGPFIITNRHLFRRNNGTLVVQSLHGVFKVKDTTTLQQHLVDGRDMIIIRMPKDFPPFPQKLKFREPQREERICLVTTNFQTKSMSSMVSDTSCTFPSGDGIFWKHWIQTKDGQCGSPLVSTRDGFIVGIHSASNFTNTNNYFTSVPKNFMELLTNQEAQQWVSGWRLNADSVLWGGHKVFMVKPEEPFQPVKEATQL [K46R]	0.0741	0.0804	0.0478	0.0701	0.0696	0.069	0.123	0.0585	0.078	0.0624	0.0619	0.0555	0.0543		0.0575	0.0591	0.0826		0.0681
MGESLFKGPRDYNPISSSICHLTNESDGHTTSLYGIGFGPFIITNFHLFRRNNGTLVVQSLHGVFKVKDTTTLQQHLVDGRDMIIIRMPKDFPPFPQKLKFREPQREERICLVTTNFQTKSMSSMVSDTSCTFPSGDGIFWKHWIQTKDGQCGSPLVSTRDGFIVGIHSASNFTNTNNYFTSVPKNFMELLTNQEAQQWVSGWRLNADSVLWGGHKVFMVKPEEPFQPVKEATQL [K46F]	0.0602		0.0713	0.0718	0.0692	0.0581	0.0561	0.0624	0.0623				0.054	0.0563	0.0607	0.0529			
MGESLFKGPRDYNPISSSICHLTNESDGHTTSLYGIGFGPFIITNEHLFRRNNGTLVVQSLHGVFKVKDTTTLQQHLVDGRDMIIIRMPKDFPPFPQKLKFREPQREERICLVTTNFQTKSMSSMVSDTSCTFPSGDGIFWKHWIQTKDGQCGSPLVSTRDGFIVGIHSASNFTNTNNYFTSVPKNFMELLTNQEAQQWVSGWRLNADSVLWGGHKVFMVKPEEPFQPVKEATQL [K46E]	0.0638		0.0586	0.0624	0.0552	0.0546	0.0666	0.0382	0.0648	0.056	0.0569	0.0499	0.0623	0.0553	0.061	0.0588			0.0547
